The supplement of paper PMC6135742
Counter-ions that a name gives are not always drawn. ± gives the standard deviation of the averaged measurements. The full ranking holds about 2,600 compounds; the median of “MBP+ mature oligodendrocyte number relative to DMSO vehicle control” is about -0.34, and the highest 2% start at about 13. This is one part of the list.

tested on: jimpy (Plp1 jimpy) mouse iPSC-derived oligodendrocyte progenitor cells; assay: MBP+ mature oligodendrocyte number relative to DMSO vehicle control (SDs above negative control mean); higher = more surviving jimpy oligodendrocytes (rescue); details: 10 µM; 3 days
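Also: 10 µM single dose with 3-day oligodendrocyte differentiation.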

SMILES	MBP+ mature oligodendrocyte number
C[C@H](CCC(=O)O)[C@H]1CC[C@H]2[C@@H]3[C@H](O)C[C@@H]4C[C@H](O)CC[C@]4(C)[C@H]3CC[C@]12C [Chenodeoxycholic Acid]	1.69
CC(=O)OCC(CCn1cnc2cnc(N)nc21)COC(C)=O [Famciclovir]	-0.0511 ± 1.1
COc1ccc([C@@H]2CC(=O)c3c(O)cc(O[C@@H]4O[C@H](CO)[C@@H](O)[C@H](O)[C@H]4O[C@@H]4O[C@@H](C)[C@H](O)[C@@H](O)[C@H]4O)cc3O2)cc1O [Neohesperidin]	0.283
NNc1nncc2ccccc12 [Hydralazine hydrochloride]	0.712
NNc1nncc2ccccc12 [Hydralazine HCl]	0.619
C=CC(=O)Nc1cccc(Oc2nc(Nc3ccc(N4CCN(C)CC4)cc3OC)ncc2Cl)c1	< -6.7
O=C(/C=C/c1ccc(O)c(O)c1)OCCc1ccccc1 [Caffeic Acid Phenethyl Ester]	-4.64
O=C(/C=C/c1ccc(O)c(O)c1)OCCc1ccccc1 [Caffeic acid phenethyl ester]	< -3.34
CN1CCN(CCCN2c3ccccc3Sc3ccc(Cl)cc32)CC1 [Prochlorperazine dimaleate]	< -3.85
Cc1nc(=O)c2cc(CN(C)c3ccc(C(=O)N[C@@H](CCC(=O)O)C(=O)O)s3)ccc2[nH]1 [Raltitrexed]	0.982
O=C1c2ccccc2C(=O)c2c1ccc(O)c2O [Alizarin]	0.339
N[C@@H]1[C@H]2CN(c3nc4c(cc3F)c(=O)c(C(=O)O)cn4-c3ccc(F)cc3F)C[C@@H]12 [Trovafloxacin mesylate]	1.88
CC(/C=C1\SC(=S)N(CC(=O)O)C1=O)=C\c1ccccc1 [Epalrestat]	-0.174 ± 1.1
CS(=O)(=O)N1CCc2c(-c3cnc(N)nc3)nc(N3CCOCC3)nc21	< -6.01
Cn1ccc2cc(NC(=O)Nc3cccnc3)ccc21	-0.158
CC(=O)[C@]1(O)Cc2c(O)c3c(c(O)c2[C@@H](O[C@H]2C[C@H](N)[C@H](O)[C@H](C)O2)C1)C(=O)c1ccccc1C3=O [Idarubicin]	3.22
CC(=O)[C@]1(O)Cc2c(O)c3c(c(O)c2[C@@H](O[C@H]2C[C@H](N)[C@H](O)[C@H](C)O2)C1)C(=O)c1ccccc1C3=O [Idarubicin HCl]	-1.46
O=S(=O)(O)NC1CCCCC1 [Cyclamic  acid]	-1.25
COc1ccc([C@]2(C#N)CC[C@@H](C(=O)O)CC2)cc1OC1CCCC1 [Cilomilast]	-0.676
COCC[n+]1c2c(n(Cc3cnccn3)c1C)C(=O)c1ccccc1C2=O [YM155 (Sepantronium Bromide)]	< -6.7
